# Assay results from PubChem BioAssay (NCI).
# Several values for one entry are separate records, joined by “and”; a condition that tells them apart may be missing. Equal values may be shown once.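 Values below derive from 48-hour exposures of cells grown in 96-well plates, with endpoints linearly interpolated between the two concentrations bracketing the appropriate inhibition level. GI50 marks 50% less growth. At the TGI there is no net growth.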 Numbered stars: 1 amine (or outer) side, 2 acyl side, 3 side chain; on linkers, the order of the positions; unused ones are H or OH. Bridge positions count the residues as written; N and C are the ends. Square brackets hold non-standard residues; d marks the D form. Peptide text beside a SMILES is read from it. I, II: the chains in the order shown. Actinocin(9to1) = Cc1c2oc3c(C)ccc(C(=O)[*:1])c3nc-2c(C(=O)[*:2])c(N)c1=O; Hyp = O=C(O)[CH]1C[CH](O)CN1; NMeV = CN[CH](C(=O)O)C(C)C; Sar = CNCC(=O)O
# Tested on: NCI-H322M lung
# Assay: DTP human tumour cell line panel, 48 h
SMILES,GI50,TGI
O=C(/C=C1\C(=O)N(Cc2ccccc2)c2ccccc21)c1ccc(OCCN2CCCCC2)cc1,11.7 µM,24 µM
CCCCCCCCCCCCCCCCOP(=O)([O-])OCC[N+](C)(C)C,4.62 µM,17.8 µM and 45.7 µM
COC(=O)[C@]1(c2ccc(N(C)C)cc2OC)C[C@@H]2CCCN(CCc3c1[nH]c1ccccc31)C2,,> 61.8 µM
Cc1cc2n[n+]3[n-]cc(-c4ccccc4)n3c2cc1[N+](=O)[O-],,> 100 µM
COc1c(Br)cc2ccccc2c1-c1c(OC)c(Br)cc2ccccc12,,> 100 µM
CCCCc1c2cnccc2c(CCCC)c2c1[nH]c1ccccc12,,46.6 µM
COC(=O)c1ccccc1/C=C1\Cc2ccc3c(c2C1=O)CCCC3,,> 100 µM
Nc1ccc2ccc(N3CCNCC3)nc2n1,,> 100 µM
CCOc1ccc(C(C)c2cc3c(cc2OC)OCO3)cc1 (centres undefined),,> 100 µM
COc1cc(OC)c(OC)cc1/C=C/c1cnnc2ccccc12,,> 10 µM
COc1ccc(/C=C2\SC(=Nc3ccccc3)NC2=O)cc1,44.7 µM,> 100 µM
CCCCCCCC(=O)SCC/C=C/[C@@H]1CC(=O)NCc2nc(cs2)C2=N[C@@](C)(CS2)C(=O)N[C@@H](C(C)C)C(=O)N1,0.0336 µM,
COc1ccc(NC(=O)c2sc3nc(C)c(C(=O)/C=C/c4cccc(OC)c4)cc3c2N)cc1,1.64 µM,15.5 µM
O=C(c1ccco1)c1c(C(F)(F)F)n([O-])c2cc(C(F)(F)F)ccc2[n+]1=O,1.97 µM,3.83 µM
O=C1C(=O)c2ccccc2C(O)=C1CCCc1ccc(C2CCCCC2)cc1,11.1 µM,40.5 µM
COC1=C(Cl)C(=O)c2c(O)ccc(O)c2C1=O,,8.75 µM
CO[C@H]1C[C@](C)(O)Cc2cc3c(c(O)c21)C(=O)c1c(O)cc2c(c1C3=O)O[C@@H]1O[C@@]2(C)[C@H](O)[C@@H](N(C)C)[C@@H]1O,2.37 µM,6.42 µM and 14.8 µM
CC([C@H]1CC=C2C3CCC4=C[C@@H](N(C)C)CC[C@]4(C)C3CC[C@@]21C)N(C)C (some centres undefined),3.05 µM,12.4 µM
CCOC(=O)/C=C(\C(=O)OCC)n1cc(Cl)c(=O)n(CC(=O)OCC)c1=O,,33.5 µM
Cc1c(N)nc(C(CC(N)=O)NCC(N)C(N)=O)nc1C(=O)NC(C(=O)NC(C)C(O)C(C)C(=O)NC(C(=O)NCCc1nc(-c2nc(C(=O)NCCCNC(C)c3ccccc3)cs2)cs1)C(C)O)C(OC1OC(CO)C(O)C(O)C1OC1OC(CO)C(O)C(OC(N)=O)C1O)c1cnc[nH]1 (centres undefined),> 100 µM,50 µM and > 100 µM
O[C@@H]1CCC[C@@H]2NC[C@@H](c3ccc4c(c3)OCO4)[C@H]12,,> 100 µM
COC(=O)[C@]1(c2cc3ccccc3[nH]2)CC2CN(C(=O)OCc3ccccc3)C1CC2=O (some centres undefined),,77.3 µM

SMILES,GI50,TGI
"Cc1c2oc3c(C)ccc(C(=O)NC4C(=O)NC(C(C)C)C(=O)N5CC(O)CC5C(=O)N(C)CC(=O)N(C)C(C(C)C)C(=O)OC4C)c3nc-2c(C(=O)NC2C(=O)NC(C(C)C)C(=O)N3CC(O)CC3C(=O)N(C)CC(=O)N(C)C(C(C)C)C(=O)OC2C)c(N)c1=O (centres undefined) (I: TV[Hyp][Sar][NMeV] / II: TV[Hyp][Sar][NMeV]; ester I:1-I:C, II:1-II:C; linker I:N-II:N via Actinocin(9to1); configuration not given here)",,> 1 µM
CC(C(=O)c1ccncc1)c1ccccn1 (centres undefined),,> 100 µM
CC(=O)O[C@H]1C[C@@H](OC(C)=O)[C@@](C)(O)[C@@H]2[C@@H](OC(C)=O)[C@@]3(O)[C@H](/C=C(/CO)[C@H]4O[C@H]4[C@@H](OC(C)=O)[C@@]12C)OC(=O)[C@@H]3C,,> 25 µM
COc1ccc(NC(C(N)=O)c2cc3cc(Br)ccc3nc2Cl)cc1 (centres undefined),,> 100 µM
CCOC(=O)C(=CNC(=S)N=Nc1c(O)[nH]c2ccccc12)C(=O)OCC,,> 100 µM
CC1(C)OC(=O)C(C#N)=C1C[n+]1ccccc1,,> 10 µM
C=CC(=O)N1C/C(=C\c2ccc([N+](=O)[O-])cc2)C(=O)/C(=C/c2ccc([N+](=O)[O-])cc2)C1,,2.19 µM
CC(=O)OC12c3ccccc3-c3ccccc3C1C(C(=O)O)C2C(=O)O (centres undefined),,> 10 µM
COC(=O)C1CCC(=O)N1C(c1cc(OC)c(OC)c(OC)c1)c1cccc2ccccc12 (centres undefined),,> 100 µM
Cc1ccc(S(=O)(=O)C2=c3nc4ccccc4cc3=C3C(=O)c4ccccc4C(=O)C32)cc1 (centres undefined),,> 100 µM
CC(C)(C)N/N=C(\C(=O)Nc1nc(=S)[nH][nH]1)C1C(=O)Nc2ccccc2S1=O (centres undefined),,> 100 µM
CCN(CC)CC1CN=C(N)O1 (centres undefined),,> 100 µM
O=C1CSC(c2ccc([N+](=O)[O-])cc2)N1c1ccc(-c2ccc(-n3c(-c4ccccc4)nc4ccccc4c3=O)cc2)cc1 (centres undefined),,> 100 µM
COc1ccc(-c2ncn(C[Si](C)(C)C)c2-c2ccc(OC)cc2)cc1,,18.6 µM
CCOC(=O)C(Cc1ccccc1)NC(=O)c1[nH]cnc1/N=N/N(C)C (centres undefined),,> 100 µM
CCSc1nc(=S)n(-c2ccccc2)c(C)c1C(C)=O,,> 100 µM
CC(C)C(=O)/C=C/S/C=C/C(=O)C(C)C,,> 100 µM
Cc1ccc(S(=O)(=O)N/N=C2\CC3CC4CCC2C4C3)cc1 (centres undefined),,> 100 µM
COC1=CC(c2ccc[nH]2)=N/C1=C\c1[nH]c(C)c(CC(=O)OCc2ccccc2)c1C,0.44 µM,3.21 µM
O=C(Nc1ccccc1-c1nn(CN2CCNCC2)c(=S)n(CN2CCNCC2)c1=O)C(F)(F)F,,49.9 µM
S=c1nc(N/N=C/c2cccs2)c2cn[nH]c2[nH]1,,16.7 µM
Cc1[nH]c2ccccc2c1/C=N/NC(=O)c1cccc(I)c1,,70.2 µM
